Assay results from the supplement of paper PMC4604168 (melanoma cell lines).
The list shows a part of the results. Many values rest on one well or one pass, so single values are uncertain.

Key:
Assay in all cases: cell count relative to DMSO control; melanoma cells; higher = more viable cells
Settings in all cases: library dose: low library concentration; 72 h
[1] = system: MZ2-MEL
[2] = system: MeWo
[3] = system: RPMI7951
[4] = system: RVH-421
[5] = system: SkMel28
[6] = system: SkMel2
[7] = system: SkMel30
[8] = system: SkMel5
[9] = system: UACC257
[10] = system: UACC62
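Note: cell number obtained by counting DAPI-stained nuclei in high-throughput microscope images with image analysis software, screen run in 1,536-well plates.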

Row | Compound | cell count [1] [%] | cell count [2] [%] | cell count [3] [%] | cell count [4] [%] | cell count [5] [%] | cell count [6] [%] | cell count [7] [%] | cell count [8] [%] | cell count [9] [%] | cell count [10] [%]
1 | Cc1cc(Nc2cc(N3CCN(C)CC3)nc(/C=C/c3ccccc3)n2)n[nH]1 + CCCCCCCCCCCC1=C(O)C(=O)C=C(O)C1=O [Embelin] (first compound 0.04 µM, partner dose 1.2 µM) | 103 | 107 | 120 | 107 | 77.3 | 105 | 99.5 | 108 | 79.3 | 82.3
2 | CC(C)C[C@H](NC(=O)[C@H](Cc1ccccc1)NC(=O)c1cnccn1)B(O)O [Bortezomib] + CC(C)CCN1c2nc(Nc3cc(F)c(O)c(F)c3)ncc2N(C)C(=O)C1C [BID1870] (first compound 0.001 µM, partner dose 0.2 µM) | 97.2 | 85.8 | 84.7 | 52.8 | 77.1 | 99.2 | 72 | 94.7 | 86 | 62.7
3 | Cn1c(=O)n(-c2ccc(C(C)(C)C#N)cc2)c2c3cc(-c4cnc5ccccc5c4)ccc3ncc21 + Cc1ccc(NC(=O)c2cccc(N(C)C)c2)cc1NC(=O)c1ccc(O)cc1 [ZM336372] (first compound 0.004 µM, partner dose 2 µM) | 85.4 | 82.2 | 98.9 | 90.3 | 92 | 111 | 97.6 | 124 | 88 | 92.5
4 | COc1ccc(C2=N[C@@H](c3ccc(Cl)cc3)[C@@H](c3ccc(Cl)cc3)N2C(=O)N2CCNC(=O)C2)c(OC(C)C)c1 [Nutlin-3] + COc1cc(Nc2ncc(F)c(Nc3ccc4c(n3)NC(=O)C(C)(C)O4)n2)cc(OC)c1OC [Tamatinib] (first compound 0.1 µM, partner dose 0.4 µM) | 92 | 96.2 | 97.3 | 70.2 | 71.5 | 92 | 69.4 | 81.1 | 53.6 | 76.6
5 | Cn1c(=O)n(-c2ccc(C(C)(C)C#N)cc2)c2c3cc(-c4cnc5ccccc5c4)ccc3ncc21 + CO[C@@H]1[C@H](N(C)C(=O)c2ccccc2)C[C@H]2O[C@]1(C)n1c3ccccc3c3c4c(c5c6ccccc6n2c5c31)C(=O)NC4 [Midostaurin] (first compound 0.004 µM, partner dose 0.08 µM) | 100 | 80.6 | 85.5 | 84.4 | 67.1 | 83.1 | 89.4 | 102 | 73.4 | 98.5
6 | Cc1cn(-c2cc(NC(=O)c3ccc(C)c(Nc4nccc(-c5cccnc5)n4)c3)cc(C(F)(F)F)c2)cn1 [nilotinib] + C=CCn1c(=O)c2cnc(Nc3ccc(N4CCN(C)CC4)cc3)nc2n1-c1cccc(C(C)(C)O)n1 [MK1775] (first compound 0.2 µM, partner dose 0.02 µM) | 103 | 104 | 102 | 102 | 90.8 | 84.2 | 78.4 | 94 | 89.1 | 99.1
7 | Cc1cn(-c2cc(NC(=O)c3ccc(C)c(Nc4nccc(-c5cccnc5)n4)c3)cc(C(F)(F)F)c2)cn1 [nilotinib] + Cn1c(=O)n(-c2ccc(C(C)(C)C#N)cc2)c2c3cc(-c4cnc5ccccc5c4)ccc3ncc21 [NVP-BEZ235] (first compound 0.2 µM, partner dose 0.004 µM) | 108 | 89.2 | 90.9 | 92.7 | 110 | 86.6 | 89.1 |  |  | 112
8 | Cc1cn(-c2cc(NC(=O)c3ccc(C)c(Nc4nccc(-c5cccnc5)n4)c3)cc(C(F)(F)F)c2)cn1 [nilotinib] + COc1cc2ncnc(Nc3ccc(Oc4ccccc4)cc3)c2cc1OC [SrcI1] (first compound 0.2 µM, partner dose 2 µM) | 90.9 | 100 | 102 | 103 | 105 | 107 | 94.4 | 110 | 95.1 | 98.8
9 | COc1ccc(C2=N[C@@H](c3ccc(Cl)cc3)[C@@H](c3ccc(Cl)cc3)N2C(=O)N2CCNC(=O)C2)c(OC(C)C)c1 [Nutlin-3] + C=C(c1ccc(C(=O)O)cc1)c1cc2c(cc1C)C(C)(C)CCC2(C)C [Bexarotene] (first compound 0.1 µM, partner dose 2 µM) | 95.5 | 86.2 | 88.2 | 94.8 | 49.6 | 86.6 | 104 |  |  | 70.8
10 | Cc1cc(Nc2cc(N3CCN(C)CC3)nc(/C=C/c3ccccc3)n2)n[nH]1 + Oc1cc(-c2nc(-c3ccccc3)[nH]c2-c2ccncc2)ccc1Cl [L779450] (first compound 0.04 µM, partner dose 0.2 µM) | 76.9 | 94.6 | 90.8 | 94.8 | 55.5 | 91.3 | 95.3 | 100 | 84.4 | 57.2
11 | Cc1cc(Nc2cc(N3CCN(C)CC3)nc(/C=C/c3ccccc3)n2)n[nH]1 + CCN(CC)CCCCNc1ncc2cc(-c3cc(OC)cc(OC)c3)c(NC(=O)NC(C)(C)C)nc2n1 [PD173074] (first compound 0.04 µM, partner dose 0.1 µM) | 107 | 118 | 88.7 | 75.1 | 85.8 | 108 | 97.6 | 97.5 | 90.9 | 94.3
12 | Cc1cn(-c2cc(NC(=O)c3ccc(C)c(Nc4nccc(-c5cccnc5)n4)c3)cc(C(F)(F)F)c2)cn1 [nilotinib] + Cc1cc(N2CCOCC2)cc2[nH]c(-c3c(NC[C@@H](O)c4cccc(Cl)c4)cc[nH]c3=O)nc12 [BMS536924] (first compound 0.2 µM, partner dose 0.2 µM) | 98.3 | 89.8 | 96 | 93 | 106 | 84.9 | 72.2 | 105 | 86.6 | 98.5
13 | COc1ccc(C2=N[C@@H](c3ccc(Cl)cc3)[C@@H](c3ccc(Cl)cc3)N2C(=O)N2CCNC(=O)C2)c(OC(C)C)c1 [Nutlin-3] + NCC(=O)Nc1ccc(-n2nc(C(F)(F)F)cc2-c2ccc3c(ccc4ccccc43)c2)cc1 [OSU03012] (first compound 0.1 µM, partner dose 1 µM) | 97.2 | 58.3 | 103 | 80.1 | 68.5 | 72.5 | 44.9 | 86.6 | 76.9 | 97.7
14 | CC(C)C[C@H](NC(=O)[C@H](Cc1ccccc1)NC(=O)c1cnccn1)B(O)O [Bortezomib] + Cc1cc(N2CCOCC2)cc2[nH]c(-c3c(NC[C@@H](O)c4cccc(Cl)c4)cc[nH]c3=O)nc12 [BMS536924] (first compound 0.001 µM, partner dose 0.2 µM) | 70.6 | 83.5 | 106 | 67.3 | 76.7 | 91.9 | 74.7 | 92.9 | 76.9 | 73.5
15 | CC(C)C[C@H](NC(=O)[C@H](Cc1ccccc1)NC(=O)c1cnccn1)B(O)O [Bortezomib] + Nc1ccn([C@@H]2O[C@H](CO)[C@@H](O)C2(F)F)c(=O)n1 [gemcitabine] (first compound 0.001 µM, partner dose 0.0004 µM) | 76.6 | 77.3 | 74.7 | 45.1 | 99.4 | 105 | 75.6 |  |  | 80.5
16 | Cc1cc(Nc2cc(N3CCN(C)CC3)nc(/C=C/c3ccccc3)n2)n[nH]1 + CC(C)CCN1c2nc(Nc3cc(F)c(O)c(F)c3)ncc2N(C)C(=O)C1C [BID1870] (first compound 0.04 µM, partner dose 0.2 µM) | 101 | 86.9 | 98.9 | 78.9 | 85.6 | 91.1 | 89.4 | 105 | 80.6 | 79.3
17 | COc1ccc(C2=N[C@@H](c3ccc(Cl)cc3)[C@@H](c3ccc(Cl)cc3)N2C(=O)N2CCNC(=O)C2)c(OC(C)C)c1 [Nutlin-3] + O=C(Nc1ccccc1)c1cc([N+](=O)[O-])ccc1Cl [GW9662] (first compound 0.1 µM, partner dose 2 µM) | 100 | 93 | 107 | 90.1 | 88.9 | 100 | 88.5 | 96.9 | 110 | 92.9
18 | COc1ccc(C2=N[C@@H](c3ccc(Cl)cc3)[C@@H](c3ccc(Cl)cc3)N2C(=O)N2CCNC(=O)C2)c(OC(C)C)c1 [Nutlin-3] + CC1(C)NC(=O)N(c2ccc([N+](=O)[O-])c(C(F)(F)F)c2)C1=O [nilutamide] (first compound 0.1 µM, partner dose 1 µM) | 99.8 | 98.9 | 109 | 76.7 | 98.5 | 92 | 124 | 83.2 | 75.4 | 96.1
19 | Cc1cc(Nc2cc(N3CCN(C)CC3)nc(/C=C/c3ccccc3)n2)n[nH]1 + O=C(O)[C@@H]1[O][Sb](=[O])([O][Sb]2(=[O])[O][C@H]([C@H](O)CO)[C@H](O)[C@H](C(=O)O)[O]2)[O][C@H]([C@H](O)CO)[C@@H]1O [stibogluconate] (first compound 0.04 µM, partner dose 2 µM) | 91.1 | 99.4 | 103 | 89.9 | 89.3 | 99.5 | 107 |  |  | 93.4
20 | Cc1cn(-c2cc(NC(=O)c3ccc(C)c(Nc4nccc(-c5cccnc5)n4)c3)cc(C(F)(F)F)c2)cn1 [nilotinib] + N#Cc1c(O)c2c(-c3ccc(-c4ccccc4O)cc3)csc2[nH]c1=O [A769662] (first compound 0.2 µM, partner dose 2 µM) | 103 | 102 | 80.2 | 87.6 | 107 | 98.1 | 87.3 | 105 | 92.3 | 97
